Source: article PMC4336329 (PLoS ONE, 2015)
The campaign covered roughly 310,000 compounds. About 14,000 (4.5%) showed an effect of 50% or more. The effect is printed as a negative number. This is one part of the list.

Biological target: human ether-à-go-go-related gene (hERG) potassium channel (human, UniProt Q12809)
Assay: primary screen, population patch clamp on CHO cells stably expressing hERG
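Note: peak tail current of the secondary pulse compared with the same well before compound.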

human ether-à-go-go-related gene (hERG) potassium channel, sequence (Q12809 whole entry, looked up): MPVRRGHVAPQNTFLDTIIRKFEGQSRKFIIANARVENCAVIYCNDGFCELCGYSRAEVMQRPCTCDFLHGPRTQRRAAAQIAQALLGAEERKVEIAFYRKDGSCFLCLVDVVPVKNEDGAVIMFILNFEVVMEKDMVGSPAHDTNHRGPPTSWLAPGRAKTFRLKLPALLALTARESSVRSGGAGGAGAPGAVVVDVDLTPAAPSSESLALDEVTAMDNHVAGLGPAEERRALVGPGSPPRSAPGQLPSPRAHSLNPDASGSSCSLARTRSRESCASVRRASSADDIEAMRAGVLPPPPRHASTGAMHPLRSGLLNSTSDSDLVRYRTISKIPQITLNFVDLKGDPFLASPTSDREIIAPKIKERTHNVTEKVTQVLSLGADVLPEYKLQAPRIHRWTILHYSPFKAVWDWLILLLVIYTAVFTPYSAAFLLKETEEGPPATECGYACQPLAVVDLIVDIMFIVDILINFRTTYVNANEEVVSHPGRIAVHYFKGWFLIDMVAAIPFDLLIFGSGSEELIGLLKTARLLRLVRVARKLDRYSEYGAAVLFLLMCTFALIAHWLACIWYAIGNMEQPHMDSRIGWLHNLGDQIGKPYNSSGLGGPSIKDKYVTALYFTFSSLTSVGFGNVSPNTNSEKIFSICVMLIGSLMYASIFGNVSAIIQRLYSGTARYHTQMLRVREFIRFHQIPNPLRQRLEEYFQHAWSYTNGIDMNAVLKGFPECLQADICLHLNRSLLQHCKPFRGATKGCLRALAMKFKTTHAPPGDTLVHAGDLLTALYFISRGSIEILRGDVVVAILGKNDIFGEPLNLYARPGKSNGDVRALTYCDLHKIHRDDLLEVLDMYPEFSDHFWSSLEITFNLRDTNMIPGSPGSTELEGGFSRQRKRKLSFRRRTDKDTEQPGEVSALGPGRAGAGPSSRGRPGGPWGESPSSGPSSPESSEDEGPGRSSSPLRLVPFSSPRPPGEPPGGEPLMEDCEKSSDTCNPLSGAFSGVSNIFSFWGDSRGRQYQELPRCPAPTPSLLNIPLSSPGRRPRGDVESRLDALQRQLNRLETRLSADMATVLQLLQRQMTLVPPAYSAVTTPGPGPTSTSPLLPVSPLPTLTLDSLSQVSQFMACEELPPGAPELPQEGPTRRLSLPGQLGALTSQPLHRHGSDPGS

| Compound | hERG current change (%, negative = inhibition) at 10uM [%] |
| --- | --- |
| CCC(=O)NC(=S)Nc1ccc(NC(=O)c2ccc([N+](=O)[O-])cc2Cl)cc1 | 4 |
| Cc1cc(C(=O)N2CCC(C(N)=O)CC2)c(C)o1 | 0.38 |
| O=S(=O)(c1cnccc1N1CCN(/N=C/c2ccc(Cl)cc2)CC1)N1CCCCC1 | 5.46 |
| O=C(c1cc(-c2ccc(Cl)cc2)n(-c2ccc(Cl)c(Cl)c2)n1)N1CCOCC1 | -57 |
| CC(=O)N/C(=N/c1nc(C)cc(C)n1)Nc1ccc(NC(C)=O)cc1 | 9.5 |
| CCCNC(=O)NC(=O)COC(=O)c1cccc(NS(=O)(=O)c2ccc(F)c(F)c2)c1 | -12 |
| O=C1CCCc2c1[nH]c1c(Br)cccc21 | -16 |
| O=C(CSc1ccc(F)cc1)Nc1ccc(N2CCOCC2)cc1 | -2.37 |
| Fc1ccc(/C=N\Nc2cccc(F)c2)cc1 | 12.1 |
| Cc1cccc(NC(=O)N2CCN(Cc3ccccc3)CC2)c1 | 8.14 |
| O=C(c1ccc(NS(=O)(=O)c2cccc(F)c2)cc1)N1CCCC1 | 1.58 |
| Cc1cc([N+](=O)[O-])nn1CCCC(=O)Nc1cc(Cl)ccc1Cl | -17 |
| O=C(COC(=O)C12CC3CC(CC(C3)C1)C2)Nc1nccs1 | 22.4 |
| CCN(C(=S)Nc1ccc(OC(F)F)cc1)C1CCCCC1 | -22.8 |
| CCC1(c2ccccc2)NC(=O)N(CC(=O)NNC(=O)COc2ccc(Cl)cc2C)C1=O (stereo not shown) | 11.7 |
| COC(=O)CSc1[nH]c2ccc(Br)cc2c1[N+](=O)[O-] | 16.7 |
| COC(=O)NCC(C)OC(=O)Nc1cccc(Cl)c1 (stereo not shown) | -1.92 |
| CCNS(=O)(=O)c1ccc(CCC(=O)Nc2ccccc2C(=O)OC)cc1 | -19.1 |
| CCOC(=O)CSc1cc(C)c(C#N)c2nc3ccccc3n12 | -24.1 |
| COc1ccc(NC(=O)C2CCN(C(=O)c3ccccc3)CC2)c(OC)c1 | -4 |
| O=C(COC(=O)c1cc(-c2ccncc2)nc2ccccc12)Nc1ccc2c(c1)OCO2 | 2.21 |
| O=C(COC(=O)c1nc(Cl)ccc1Cl)NCc1ccc(Cl)cc1 | 1.74 |

| Compound | hERG current change (%, negative = inhibition) at 10uM [%] |
| --- | --- |
| COc1ccc(OC)c(N(CC(=O)NCC2CCCO2)S(=O)(=O)c2ccccc2)c1 (stereo not shown) | 8.03 |
| COc1ccc(-n2c(CN3CCN(c4ccccn4)CC3)nc3ccc([N+](=O)[O-])cc3c2=O)c(OC)c1 | -55.5 |
| CCOC(=O)c1ccc(NC(=O)c2nc[nH]c2C(=O)N[C@H](C)c2ccccc2)cc1 | 12 |
| CC1CCCCN1C(=O)c1cccc(NC(=O)c2ccccc2)c1 (stereo not shown) | -2.4 |
| Cc1cc(NCc2ccccn2)n2nc(C)c(-c3ccccc3)c2n1 | -12 |
| CCOc1cc(S(=O)(=O)NCCN2CCOCC2)c(C)cc1C | 12 |
| COc1cccc(NC(=O)C2CC(=O)N(C)C(=Nc3cccc(F)c3)S2)c1 (stereo not shown) | 4.91 |
| Cc1nn(Cc2ccccc2)c(Cl)c1/C=C/C(=O)OC(C)C(=O)N1CCCC1 (stereo not shown) | 18.7 |
| CSCCC(NS(=O)(=O)c1ccc2c(c1)oc(=O)n2C)C(=O)NC1CCCc2ccccc21 (stereo not shown) | 1.51 |
| CCOc1ccc(NC(=O)c2ccc(OC)cc2)cc1 | 10.5 |
| O=C(CSc1nnnn1-c1ccccc1)N1CCc2ccccc2C1 | -47 |
| O=S1(=O)CC/C(=N\O)c2ccccc21 | 24.1 |
| COc1ccc(-c2cc3nc(-c4ccccc4)cc(N4CCC(O)CC4)n3n2)cc1 | -7.45 |
| Cc1cccc(C(C)C)c1NC(=O)COC(=O)Cc1ccsc1 | 7.1 |
| Cc1ccc(/C=N/n2c(C)nnc2C)s1 | 11.7 |
| CC1C(=O)C(C)C(c2ccc(Br)cc2)NC1c1ccc(Br)cc1 (stereo not shown) | 19 |
| CC(C)C(NC=C1C(=O)OC(C)(C)OC1=O)C(=O)O (stereo not shown) | 8.56 |
| CCOc1ccccc1N=C1SC(CC(=O)Nc2ccc(OC)cc2OC)C(=O)N1CCC1=CCCCC1 (stereo not shown) | -3.98 |
| O=C(NCc1ccc2c(c1)OCO2)c1ccc(CN2CCc3ccccc3C2)cc1 | -52.5 |
| CC(C)(Cc1ccccc1)/[N+]([O-])=C\c1ccccc1 | 8.31 |
| O=C(/C=C/c1cccc(F)c1)N1CCN(c2ncccn2)CC1 | 7.29 |
